Experimental data: PubChem BioAssay AID1347416 (National Center for Advancing Translational Sciences (NCATS), 2020)
About 1,600 (39%) of roughly 4,100 compounds were called active. The shares of active, inactive and inconclusive entries below differ from those in the screen. Calls follow the shape of the dose curve; as a rule, active = well fitted inhibition curve with a large enough effect; inconclusive = small, poorly fitted or top-dose-only effect; inactive = no such curve, though single readings can be large or run the other way. Where the call is inconclusive, the potency comes from a doubtful curve fit.

test: qHTS Validation assay for Inhibitors of Plasmodium falciparum Dd2 growth in vitro; also: nearly all actives have a fitted effect of over 70% in size; conditions: P. falciparum Dd2 in RBCs, SYBR Green growth, 72 h; activity change, negative = inhibition: at 28.7 µM (top of the series) unless noted
Method in brief: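 P. falciparum Dd2-infected red blood cells (2.5% hematocrit, 0.3% parasitemia) grown 72 h at 37 °C under 5% O2 with compounds in a titration, 29 uM to 0.5 nM final. Growth read as SYBR Green-1 fluorescence after ~16 h lysis; artesunate 300 nM as positive control.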
% is scaled to controls: 0 for no effect and ±100 for the full control effect; potency is read from the fitted curve at half-maximal effect; tags tell the direction and shape of the fitted curve.

For `CN(C)c1nc(=Nc2cccc(Cl)c2)ss1`, which Potency is on record?
Its Potency is inconclusive: 7.5 µM [inhibitor, single point].

With `O=C(c1ccccc1F)N1CCCC2(C1)NC(=O)N(Cc1cccc(Cl)c1)C2=O` (stereo not drawn) as the molecule, how does the “activity change, negative = inhibition” value read?
The value was inactive: -0.29%.

Which Potency does the source give for `CC1=C[C@@H](CNC(=O)COc2ccccc2)[C@H](C(C)C)C[C@H]1Cc1nnc(-c2cncn2C)o1` here?
Its Potency is active: 13.3 µM.

Which Potency does the source give for `CCc1ccc(Nc2cc(=O)n(C3CCCCC3)c(=O)[nH]2)cc1` here?
Its Potency is inconclusive: 15 µM [inhibitor, single point].

Which Potency does the source give for `COc1ccc(NC(=O)Cc2c[nH]c3ncc(-c4cnn(C)c4)cc23)cn1` here?
The Potency was inconclusive: 12.2 µM [inhibitor, partial curve].

For `Cc1ccc(-n2nc3c(Cl)nnc(C)c3c2C)cc1`, which Potency is on record?
The Potency was inconclusive: 2.37 µM [inhibitor, partial curve, poor fit].

For `COc1ccc(-c2noc(-c3cccn3CC(=O)Nc3ccc4c(c3)CCC4)n2)cc1F`, which Potency is on record?
The Potency was inconclusive: 16.8 µM [inhibitor, partial curve, poor fit].

With `COc1ccccc1CNC(=O)CCCCn1c(=O)c2ccccc2n(Cc2ccccc2C)c1=O` as the molecule, how does the Potency read?
The Potency was inconclusive: 15 µM [inhibitor, single point].

Which Potency does the source give for `COc1c(F)c(F)c(C(=O)Nc2ccccc2N2CCN(C(=O)C(C)C)CC2)c(F)c1F` here?
Its Potency is inconclusive: 21.1 µM [inhibitor, single point].

For `CCOC(=O)c1c(C)oc2nc(C)nc(NCC3CCN(Cc4ccc(F)cc4)CC3)c12`, which Potency is on record?
The Potency was inconclusive: 21.1 µM [inhibitor, single point].

Which Potency does the source give for `Cc1ccc(/C=N/NC(=O)c2nnn(-c3nonc3N)c2-c2ccc3c(c2)OCO3)s1` here?
The Potency was inconclusive: 0.842 µM [inhibitor, full curve].

With `O=S(=O)(c1ccc(Cl)cc1)N1CCN(C(=S)Nc2ccccc2F)CC1` as the molecule, how does the Potency read?
Its Potency is active: 2.37 µM.

With `O=C(NC1CCN(c2cc(-c3cccs3)[nH]n2)CC1)c1cc(Cl)ccc1F` as the molecule, how does the Potency read?
Its Potency is inconclusive: 15 µM [inhibitor, single point].

With `Cc1ncsc1CN1CCC[C@H]1C(=O)N1CCCCCCNC(=O)CC1` as the molecule, how does the Potency read?
The Potency was inconclusive: 21.1 µM [inhibitor, single point].

Which Potency does the source give for `Cc1cc(NC(=O)CSc2nc3cc(Cl)ccc3o2)no1` here?
The Potency was inconclusive: 4.73 µM [inhibitor, full curve, poor fit].

For `COc1ccccc1C(=O)NCc1nnc2ccc(-c3ccc(C)cc3)nn12`, which “activity change, negative = inhibition” value is on record?
Its value is inactive: 0%.

With `CC1CC(C)CN(C(=O)CCNC(=O)c2ccccc2Cl)C1` (stereo not drawn) as the molecule, how does the “activity change, negative = inhibition” value read?
The value was inactive: 18.5%.

Which “activity change, negative = inhibition” value does the source give for `COc1ccc2c(c1)CCN=C2C[C@H]1CN(C(=O)NC(C)C)CC[C@H]1CC(=O)O` here?
The value was inactive: 40.3% [at 43.1 µM].

Which Potency does the source give for `COc1ccccc1-c1ccc(CN2CCCC(c3nc4ccc(F)cc4c(=O)[nH]3)C2)cc1` (stereo not drawn) here?
Its Potency is active: 8.41 µM.

With `CCc1nn2cc(C(=O)c3cc(C)ccc3O)cnc2c1-c1ccc(F)cc1` as the molecule, how does the Potency read?
The Potency was active: 9.44 µM.

Which Potency does the source give for `Cc1oc2c(CN3CCCC3)c(O)ccc2c(=O)c1Oc1ccccc1Br` here?
Its Potency is inconclusive: 21.1 µM [inhibitor, single point].

For `Cc1cc(NCc2ccco2)nc2cc(O)ccc12`, which Potency is on record?
Its Potency is active: 6.68 µM.

For `Cn1nnnc1SCCCNCc1cccc(OCc2ccccc2)c1`, which Potency is on record?
The Potency was active: 9.44 µM.

With `O=c1[nH]c(N2CCOCC2)nc2c1CCN(Cc1ccc(Cl)cc1F)CC2` as the molecule, how does the Potency read?
The Potency was active: 3.35 µM.

For `CCOc1ccc(CC(=O)Nc2cccc(-c3nnc4n3CCCC4)c2)cc1`, which Potency is on record?
The Potency was inconclusive: 15 µM [inhibitor, partial curve, poor fit].

For `COc1ccc(S(=O)(=O)N2CCC(C(=O)Nc3cc(C(F)(F)F)ccc3Cl)CC2)cc1`, which Potency is on record?
The Potency was inconclusive: 15 µM [inhibitor, single point].

For `CCOC(=O)CCCCC(=O)c1[nH]c(=O)[nH]c1Cn1ccnc1`, which Potency is on record?
Its Potency is inconclusive: 2.66 µM [inhibitor, full curve].

For `COC(=O)c1ccccc1NC(=O)O[C@@H]1CO[C@H]2[C@@H]1OC[C@@H]2Nc1nccc(-c2ccc3c(c2)OCO3)n1`, which Potency is on record?
Its Potency is inconclusive: 18.8 µM [inhibitor, single point].

Which Potency does the source give for `CCOC(=O)c1noc2ncnc(N3CCN(c4cccc(Cl)c4)CC3)c12` here?
Its Potency is inconclusive: 13.3 µM [inhibitor, single point].

For `COC(=O)c1cnn(-c2ccc(C(=O)Nc3ccc(OC(F)(F)F)cc3)cc2)c1N`, which Potency is on record?
Its Potency is active: 4.73 µM.

With `CC1CCCN(Cc2c(O)ccc3c(=O)c(Oc4ccc(C(C)(C)C)cc4)c(C(F)(F)F)oc23)C1` (stereo not drawn) as the molecule, how does the Potency read?
Its Potency is active: 0.299 µM.

Which “activity change, negative = inhibition” value does the source give for `O=C1CN(Cc2ccc(-c3ccccc3)cc2)CCN1c1cc(Cl)ncn1` here?
Its value is inactive: 8.44%.

For `Cc1ccnc(NC(=O)c2cccc(S(=O)(=O)N3CCCc4ccccc43)c2)c1`, which Potency is on record?
The Potency was inconclusive: 2.37 µM [inhibitor, partial curve].

Which “activity change, negative = inhibition” value does the source give for `CCCc1nc2nc(C)c(NS(=O)(=O)c3ccc(F)cc3)c(=O)n2[nH]1` here?
The value was inactive: 15.8%.

Which Potency does the source give for `COc1ccc(CN2CC(CN[S+](=O)([O-])c3ccccc3)C3(C2)CN(c2ccccc2)C3)cc1O` (stereo not drawn) here?
The Potency was inconclusive: 15 µM [inhibitor, partial curve, poor fit].

Which Potency does the source give for `COc1ccc(CN2CCCC3(C2)C(=NC2CCCCC2)NC(=O)N3c2cc(F)cc(F)c2)cc1` (stereo not drawn) here?
The Potency was inconclusive: 16.8 µM [inhibitor, partial curve, poor fit].

Which “activity change, negative = inhibition” value does the source give for `Cc1csc2nc(COc3ccc(NC(=O)c4ccccc4F)cc3)cc(=O)n12` here?
The value was inactive: 26.8%.

With `NC(=O)c1ccc(NC(=O)C#Cc2ccccc2)cc1` as the molecule, how does the Potency read?
Its Potency is inconclusive: 21.1 µM [inhibitor, single point].

For `O=C(NCCc1c[nH]c2ccccc12)c1c(OCC2CC2)cc(=O)n2c1CCOCC2`, which “activity change, negative = inhibition” value is on record?
Its value is inactive: -39.2%.

Which Potency does the source give for `COc1ccc(C)cc1NC(=O)c1cnc(-c2ccc(F)cc2)nc1-c1ccncc1` here?
The Potency was inconclusive: 21.1 µM [inhibitor, single point].

Which Potency does the source give for `CC(C)C[C@@H]1N[C@H](C(=O)NCc2ccncc2)Cc2cn(Cc3ccncc3)c3cccc1c23` here?
Its Potency is inconclusive: 21.1 µM [inhibitor, single point].

For `CCN(Cc1nc2ccccc2n1C)c1ccccc1`, which “activity change, negative = inhibition” value is on record?
The value was inactive: 6.82%.

For `Clc1ccc(-c2nnc(N3CCCC3)nn2)cc1`, which Potency is on record?
The Potency was inconclusive: 0.531 µM [inhibitor, full curve].

Which Potency does the source give for `COc1ccc(N2CCN(C(=O)COc3ccc(-c4nnc5n4CCCC5)cc3)CC2)cc1` here?
Its Potency is inconclusive: 21.1 µM [inhibitor, partial curve, poor fit].

Which “activity change, negative = inhibition” value does the source give for `CC(C)N1CCC(NC(=O)NC2CCCCC2)CC1` here?
Its value is inactive: 42.7%.

Which Potency does the source give for `Cc1cc(O)c(CN2CCN(S(=O)(=O)c3cccs3)CC2)cc1C(C)C` here?
The Potency was inconclusive: 2.66 µM [inhibitor, partial curve, poor fit].

For `CC[C@@H](NC(C)=O)C(=O)N1CCOc2c(cc(-c3cccs3)cc2OC)C1`, which “activity change, negative = inhibition” value is on record?
Its value is inactive: 59.3%.

With `COc1ccc(-n2c(=O)c3c4c(sc3n(Cc3ccc(F)cc3)c2=O)CN(C(C)=O)CC4)c(OC)c1` as the molecule, how does the Potency read?
Its Potency is inconclusive: 21.1 µM [inhibitor, single point].

With `CCC(=O)C1=C(c2ccccc2)N(C(=O)CC)n2c(nnc2-c2ccccc2)S1` as the molecule, how does the Potency read?
Its Potency is active: 5.96 µM.

With `CCc1nc2ccc(C(=O)NCc3ccccc3C)cc2nc1CC` as the molecule, how does the “activity change, negative = inhibition” value read?
Its value is inactive: 6.91%.

With `COc1ccc(CCC(=O)N2Cc3ccccc3OC3(CCN(C)CC3)C2)cc1` as the molecule, how does the Potency read?
The Potency was inconclusive: 7.5 µM [inhibitor, partial curve].

For `CCOc1ccc(CC(=O)N2CCCC3(C2)Nc2cccnc2NC3=NC2CCCC2)cc1` (stereo not drawn), which Potency is on record?
The Potency was inconclusive: 23.7 µM [inhibitor, single point].

With `COc1cccc(-c2cc(C3CCN(S(=O)(=O)c4ccc(C(C)=O)cc4)CC3)[nH]n2)c1` as the molecule, how does the Potency read?
The Potency was inconclusive: 21.1 µM [inhibitor, single point].

For `CN1CCN(Cc2ccccc2Oc2ccc(C(F)(F)F)cn2)CC1`, which Potency is on record?
Its Potency is inconclusive: 0.531 µM [inhibitor, full curve].

Which Potency does the source give for `CC(C)(C)C1CCc2[nH]c3ccccc3c(=O)c2C1` (stereo not drawn) here?
The Potency was active: 1.88 µM.

Which Potency does the source give for `O=C(Cc1cccc(Cl)c1)N1CCC2(CC1)CCN(Cc1cccs1)c1ccccc1O2` here?
The Potency was inconclusive: 21.1 µM [inhibitor, single point].

With `Cn1cccc/c1=N\c1cccc[n+]1C` as the molecule, how does the Potency read?
The Potency was inconclusive: 13.3 µM [inhibitor, single point].

For `CC(=O)Nc1ccc(NC(=O)c2c(C)oc3ccn(Cc4ccc(F)cc4)c(=O)c23)cc1`, which Potency is on record?
Its Potency is active: 10.6 µM.

With `CCOC(=O)c1cc(Sc2ccccc2N)cc(C(=O)OCC)n1` as the molecule, how does the “activity change, negative = inhibition” value read?
Its value is inactive: -6.23%.

With `Cc1ccc(OCC(=O)Nc2ccc(OCc3cc(=O)n4c(C)csc4n3)cc2)cc1C` as the molecule, how does the Potency read?
The Potency was inconclusive: 23.7 µM [inhibitor, single point].

With `O=C(Nc1nc(-c2ccccn2)cs1)C1CC1` as the molecule, how does the Potency read?
Its Potency is inconclusive: 23.7 µM [inhibitor, single point].

With `COCCN1Cc2ccc(NCc3ccccc3)nc2C(C)(C(=O)N(C)CCOC)C1` (stereo not drawn) as the molecule, how does the Potency read?
Its Potency is inconclusive: 34.4 µM [inhibitor, single point].

Which “activity change, negative = inhibition” value does the source give for `CCOC(=O)c1cccc(NC(=O)N2CC[C@@H](CC(=O)N[C@@H](CO)CC(C)C)[C@@H](CC)C2)c1` here?
Its value is inactive: -15.6%.

With `O=C(Cc1ccccc1F)N1CCOc2ccc(CN3CCc4ccccc4C3)cc2C1` as the molecule, how does the Potency read?
Its Potency is inconclusive: 13.3 µM [inhibitor, partial curve].

For `COc1ccccc1C(C)N(C)C(=O)c1csc2nc(-c3ccccc3C)cn12` (stereo not drawn), which Potency is on record?
Its Potency is inconclusive: 15 µM [inhibitor, single point].

With `CCOc1ccc(-c2cc3c(=O)n(CCNC(=O)c4ccccc4OC)ccn3n2)cc1` as the molecule, how does the “activity change, negative = inhibition” value read?
Its value is inactive: -7.19%.

For `Cc1ccc(S(=O)(=O)N2CCC(OC3CCN(Cc4ccccc4)CC3)CC2)cc1C`, which Potency is on record?
Its Potency is inconclusive: 15 µM [inhibitor, partial curve].

Which Potency does the source give for `O=C(NC1CCSc2ccccc21)c1cccc([N+](=O)[O-])c1` (stereo not drawn) here?
The Potency was inconclusive: 21.1 µM [inhibitor, single point].
